Counter-ions that a name gives are not always drawn. Like-named read-outs stand apart in the source and are kept apart here.
Columns and labels:
[1] = cited from earlier work
[2] = cited from earlier work; remark: listed apart in the source
[3] = tested on: primary human hepatocytes, NIH3T3 fibroblasts, BSEP, CYP3A4; conditions: cited from earlier work
[4] = tested on: isolated mouse liver mitochondria; conditions: In vitro Assay; ref Porceddu 2012; cited from earlier work
[5] = cited from earlier work; remark: listed apart in the source
[6] = tested on: PHH; conditions: 2D PHH, ATP, IC50 < 100 × Cmax.tot; ref Proctor et al. 2017; cited from earlier work
[7] = tested on: HepaRG spheroids; test: Combined HCI (HCS) and cellular ATP 3D assay in HepaRG spheroids; conditions: HepaRG
[8] = tested on: hLiMTs; conditions: ATP, IC50 < 100 × Cmax.tot, ref Proctor et al. 2017; cited from earlier work
[9] = plasma free fraction; cited from earlier work
[10] = tested on: THLE or HepG2 cells, isolated mitochondria, BSEP; conditions: cited from earlier work
[11] = tested on: hLiMTs; test: Combined HCI (HCS) and cellular ATP 3D assay in hLiMTs
[12] = tested on: HepG2 C3A spheroid, BSEP, Glu/Gal in HepG2 cells, bioactivation; conditions: cited from earlier work
[13] = Plasma free fraction (fu) and unbound Cmax (Cmax,u); type: in vitro ADME, human; conditions: unbound plasma Cmax
[14] = tested on: human hepatocytes; conditions: In vitro Assay; ref Xu 2008; cited from earlier work
[15] = tested on: PHH spheroids; conditions: In vitro Assay; ref Vorrink 2018; cited from earlier work
[16] = tested on: HepG2 cells, primary human hepatocytes; conditions: cited from earlier work
[17] = binary in vivo human DILI call, ref Chen 2016
[18] = human DILI, LTKB DILIrank category, ref Chen 2016
[19] = In vitro Assay, ref Schadt 2015
[20] = Modeled in vitro assays (cytotoxicity, mitochondrial dysfunction, BSEP), ref Aleo et al. 2019
[21] = LTKB DILIrank category, ref Chen 2016

CN1C(=O)C(O)N=C(c2ccccc2)c2cc(Cl)ccc21 (centres unmarked) [temazepam]
DILI +VE (5-8), DILI -VE (-4) ([1]; in vivo): -VE
DILI severity category ([1]; in vivo): Ambiguous DILI-concern

O=C(O)COCCN1CCN([C@H](c2ccccc2)c2ccc(Cl)cc2)CC1 [levocetirizine dihydrochloride]
DILI +VE (5-8), DILI -VE (-4) [1, 17]: +VE
DILI severity category [1, 18]: vLess-DILI-Concern

CN1CC[C@]23c4c5ccc(O)c4O[C@H]2[C@@H](O)C=C[C@H]3[C@H]1C5 [morphine]
DILI +VE (5-8), DILI -VE (-4) ([1]; in vivo): -VE
DILI severity category ([1]; in vivo): vNo-DILI-Concern
In vivo DILI ([2]; in vivo): -VE

O=C(O)c1cn(C2CC2)c2cc(N3CCNCC3)c(F)cc2c1=O [ciprofloxacin]
DILI +VE (5-8), DILI -VE (-4) ([1]; in vivo): +VE
DILI severity category ([1]; in vivo): vMost-DILI-Concern
Cellular toxicity (3T3 cells) [3, 19]: +VE
Combined Assay [3, 19]: +VE
GSH adduct HML [3, 19]: -VE
Hepatocyte cellular toxicity [3, 19]: -VE
MitoTox 3T3 [3, 19]: -VE
TDI CYP3A4 [3, 19]: -VE
hBSEP inhibition [3, 19]: -VE
In vivo DILI ([2]; in vivo): +VE
in vitro data EC2<=1x Cmax [4]: +VE
DILI Score (FDA) (1-8) ([5]; in vivo): 7

NCCCC(O)(P(=O)(O)O)P(=O)(O)O [alendronate]
DILI severity category (Chen 2016) ([1]; human DILI classification, LTKB DILIrank, ref Chen et al. 2016): Less
DILI severity category ([1]; human DILI severity, ref Chen et al.): Less
DILI +VE (5-8), DILI -VE (-4) ([1]; ref Chen 2016): +VE
DILI severity category ([1]; ref Chen 2016): vLess-DILI-Concern
PHH/100xCmax, Proctor (2017) [6]: -VE
Assigned DILI category ([2]; Chen et al. 2016 or literature alignment, ref Chen et al. 2016): 2
In vivo DILI ([2]; ref Aleo 2019): +VE
In vivo DILI ([2]; ref Proctor 2017): -VE
In vivo DILI ([2]; ref Williams 2019): -VE
HepaRG <25x Avg Cmax ATP ([7]; ATP endpoint, cut-off <25x Avg Cmax): +ve
HepaRG <100x Avg Cmaxu ATP ([7]; ATP endpoint, cut-off <100x Avg Cmaxu): +ve (<100x Avg Cmaxu)
HepaRG <25x Avg Cmax HCS ([7]; HCS endpoints, cut-off <25x Avg Cmax): -ve
HepaRG <100x Avg Cmaxu HCS ([7]; HCS endpoints, cut-off <100x Avg Cmaxu): -ve
HepaRG <25x Avg Cmax All ([7]; all endpoints (ATP and HCS), cut-off <25x Avg Cmax): +ve
HepaRG Cmax max All ([7]; all endpoints, Cmax max used): +ve
HepaRG Cmax min All ([7]; all endpoints, Cmax min used): +ve
HepaRG <100x Avg Cmaxu All ([7]; all endpoints, cut-off <100x Avg Cmaxu): +ve (<100x Avg Cmaxu)
hLiMTs/100xCmax, Proctor (2017) [8]: -VE
fu [9]: 0.220
Ro2 Hybrid HRM Score ([10]; In vitro Assay, ref Aleo 2019): -VE
Rule of Two hybrid HRM Score ≥3, Aleo (2019) [10, 20]: -VE
Rule of Two hybrid HRM Score ≥8, Aleo (2019) [10, 20]: -VE
DILI prediction hLiMTs (HCS-MEC) ([11]; Microtissue model structural based (HCI), combined HCS and ATP, MEC < 25 × Cmax.tot cut-off): -VE
hLiMTs <25x Avg Cmax ATP ([11]; hLiMTs, ATP endpoint, cut-off <25x Avg Cmax): -ve
hLiMTs <100x Avg Cmaxu ATP ([11]; hLiMTs, ATP endpoint, cut-off <100x Avg Cmaxu): -ve
hLiMTs <25x Avg Cmax HCS ([11]; hLiMTs, HCS endpoints, cut-off <25x Avg Cmax): -ve
hLiMTs <100x Avg Cmaxu HCS ([11]; hLiMTs, HCS endpoints, cut-off <100x Avg Cmaxu): -ve
hLiMTs <25x Avg Cmax All ([11]; hLiMTs, all endpoints (ATP and HCS), cut-off <25x Avg Cmax): -ve
hLiMTs Cmax max All ([11]; hLiMTs, all endpoints, Cmax max used): -ve
hLiMTs Cmax min All ([11]; hLiMTs, all endpoints, Cmax min used): -ve
hLiMTs <100x Avg Cmaxu All ([11]; hLiMTs, all endpoints, cut-off <100x Avg Cmaxu): -ve
Bayesian Machine Learning DILI prediction, Williams (2019) ([12]; Bayesian modeling, ref Williams et al. 2019): -VE
Bayesian Machine Learning ([12]; In vitro Assay, ref Williams 2019): -VE
Human plasma Cmax,u [13]: 4 nM

CCCNCC(O)COc1ccccc1C(=O)CCc1ccccc1 (centres unmarked) [propafenone]
DILI +VE (5-8), DILI -VE (-4) ([1]; ref Chen 2016): +VE
DILI severity category ([1]; ref Chen 2016): vLess-DILI-Concern
In vivo DILI ([2]; ref Vorrink 2018): -VE
In vivo DILI ([2]; ref Xu 2008): -VE
Structural based (HCI) [14]: -VE
hLiMTs ATP <20 x Cmax [15]: -VE

CCOC(=O)N1CCC(=C2c3ccc(Cl)cc3CCc3cccnc32)CC1 [loratadine]
DILI +VE (5-8), DILI -VE (-4) ([1]; ref Chen 2016): -VE
DILI severity category ([1]; ref Chen 2016): vNo-DILI-Concern
In vivo DILI ([2]; ref Aleo 2019): -VE

CN1[C@@H]2CC[C@H]1C[C@@H](OC(=O)C(CO)c1ccccc1)C2 (some centres unmarked) [atropine]
DILI +VE (5-8), DILI -VE (-4) ([1]; in vivo): -VE
DILI severity category ([1]; in vivo): vNo-DILI-Concern
Combined Assay [3]: -VE
Hepatocyte cellular toxicity [3]: -VE

Cc1cc(NS(=O)(=O)c2ccc(N)cc2)no1 [sulfamethoxazole]
in vitro data EC2<=1x Cmax [4]: +VE

CC1=C(C(=O)O)N2C(=O)[C@@H](NC(=O)[C@H](N)c3ccccc3)[C@H]2SC1 [cephalexin]
DILI severity category [1, 21]: vLess-DILI-Concern

C[N+]1(C)CCC(OC(=O)C(O)(c2ccccc2)C2CCCC2)C1 (centres unmarked) [glycopyrrolate]
DILI +VE (5-8), DILI -VE (-4) [1, 17]: -VE
DILI severity category [1, 18]: vNo-DILI-Concern

CC(C)c1c(C(=O)Nc2ccccc2)c(-c2ccccc2)c(-c2ccc(F)cc2)n1CC[C@@H](O)C[C@@H](O)CC(=O)O [atorvastatin]
DILI +VE (5-8), DILI -VE (-4) ([1]; ref Chen 2016): +VE
DILI severity category ([1]; ref Chen 2016): vMost-DILI-Concern
Cellular toxicity (3T3 cells) [3, 19]: +VE
Combined Assay [3, 19]: -VE
GSH adduct HML [3, 19]: -VE
Hepatocyte cellular toxicity [3, 19]: +VE
MitoTox 3T3 [3, 19]: -VE
TDI CYP3A4 [3, 19]: -VE
hBSEP inhibition [3, 19]: +VE
In vivo DILI ([2]; […]): +VE
In vivo DILI ([2]; ref Porceddu 2012): +VE
In vivo DILI ([2]; ref Proctor 2017): +VE
In vivo DILI ([2]; ref Schadt 2015): +VE
in vitro data EC2<=1x Cmax [4]: +VE

CC(C)[N+]1(C)[C@@H]2CC[C@H]1C[C@@H](OC(=O)C(CO)c1ccccc1)C2 (some centres unmarked) [ipratropium]
In vivo DILI ([2]; in vivo): -VE

CN1[C@@H]2C[C@@H](OC(=O)[C@H](CO)c3ccccc3)C[C@H]1[C@@H]1O[C@@H]12 [scopolamine]
DILI +VE (5-8), DILI -VE (-4) ([1]; in vivo): -VE
DILI severity category ([1]; in vivo): vNo-DILI-Concern
In vivo DILI ([2]; in vivo): -VE
Cluster 1-6 +VE Assay [16]: -VE

O=C(O)COCCN1CCN(C(c2ccccc2)c2ccc(Cl)cc2)CC1 (centres unmarked) [cetirizine]
DILI severity category [1, 21]: vLess-DILI-Concern

COc1ccc2cc([C@H](C)C(=O)O)ccc2c1 [naproxen]
DILI +VE (5-8), DILI -VE (-4) ([1]; ref Chen 2016): +VE
DILI severity category ([1]; ref Chen 2016): vLess-DILI-Concern
In vivo DILI ([2]; […]): +VE
In vivo DILI ([2]; ref Aleo 2019): +VE
In vivo DILI ([2]; ref Garside 2014): +VE
In vivo DILI ([2]; ref Gustafsson 2014): +VE
In vivo DILI ([2]; ref O'Brien 2006): +VE
In vivo DILI ([2]; ref Persson 2013): +VE
In vivo DILI ([2]; ref Proctor 2017): +VE
In vivo DILI ([2]; ref Williams 2019): +VE
DILI Score (FDA) (1-8) ([5]; ref Chen 2011): 3
Cluster 1-6 +VE Assay ([16]; In vitro Assay, ref Garside 2014): -VE

CC(C)(C(=O)O)c1ccc(C(O)CCCN2CCC(C(O)(c3ccccc3)c3ccccc3)CC2)cc1 (centres unmarked) [fexofenadine]
DILI +VE (5-8), DILI -VE (-4) ([1]; in vivo): -VE
DILI severity category ([1]; in vivo): vNo-DILI-Concern
In vivo DILI ([2]; in vivo): -VE

CN1C(=O)CN=C(c2ccccc2)c2cc(Cl)ccc21 [diazepam]
DILI +VE (5-8), DILI -VE (-4) ([1]; in vivo): -VE
DILI severity category ([1]; in vivo): Ambiguous DILI-concern

CN(C)CCOC(c1ccccc1)c1ccccc1 [diphenhydramine]
DILI +VE (5-8), DILI -VE (-4) ([1]; ref Chen 2016): -VE
DILI severity category ([1]; ref Chen 2016): vNo-DILI-Concern
In vivo DILI ([2]; […]): -VE
In vivo DILI ([2]; ref Aleo 2019): -VE
In vivo DILI ([2]; ref O'Brien 2006): -VE
In vivo DILI ([2]; ref Persson 2013): -VE
In vivo DILI ([2]; ref Schadt 2015): -VE
In vivo DILI ([2]; ref Vorrink 2018): -VE
In vivo DILI ([2]; ref Xu 2008): -VE
Structural based (HCI) [14]: -VE
hLiMTs ATP <20 x Cmax [15]: -VE

Cc1cnc(C(=O)NCCc2ccc(S(=O)(=O)NC(=O)NC3CCCCC3)cc2)cn1 [glipizide]
DILI +VE (5-8), DILI -VE (-4) ([1]; in vivo): +VE
DILI severity category ([1]; in vivo): vLess-DILI-Concern

CC(C)NCC(O)COc1ccc(CC(N)=O)cc1 (centres unmarked) [atenolol]
DILI +VE (5-8), DILI -VE (-4) ([1]; ref Chen 2016): +VE
DILI severity category ([1]; ref Chen 2016): vLess-DILI-Concern
Cellular toxicity (3T3 cells) [3, 19]: -VE
Combined Assay [3, 19]: -VE
GSH adduct HML [3, 19]: -VE
Hepatocyte cellular toxicity [3, 19]: -VE
MitoTox 3T3 [3, 19]: -VE
TDI CYP3A4 [3, 19]: -VE
hBSEP inhibition [3, 19]: -VE
In vivo DILI ([2]; ref Schadt 2015): -VE
In vivo DILI ([2]; ref Vorrink 2018): -VE
In vivo DILI ([2]; ref Xu 2008): -VE
Structural based (HCI) [14]: -VE
hLiMTs ATP <20 x Cmax [15]: -VE

Nc1ccc(S(N)(=O)=O)cc1 [sulfanilamide]
In vivo DILI ([2]; assignment in O'Brien 2006, ref O'Brien 2006): -VE

CCN(CC)CC(=O)Nc1c(C)cccc1C [lidocaine]
DILI +VE (5-8), DILI -VE (-4) ([1]; ref Chen 2016): -VE
DILI severity category ([1]; ref Chen 2016): vNo-DILI-Concern
In vivo DILI ([2]; ref Khetani 2012): -VE
In vivo DILI ([2]; ref O'Brien 2006): -VE
In vivo DILI ([2]; ref Persson 2013): -VE
In vivo DILI ([2]; ref Porceddu 2012): +VE
In vivo DILI ([2]; ref Vorrink 2018): -VE
In vivo DILI ([2]; ref Xu 2008): -VE
in vitro data EC2<=1x Cmax [4]: +VE
Structural based (HCI) [14]: -VE
hLiMTs ATP <20 x Cmax [15]: -VE
